Results reported in patent US20200339699A1 (Innovent, published 2020).

Key:
[1] = molecular target: T1, human BCMA on NCI-H929 cells (human, UniProt Q02223 1-184); assay: flow cytometry on NCI-H929 cells, scFv-hFc
T1 construct: BCMA-positive human multiple myeloma cell line NCI-H929 (ATCC CRL-9068); also called B-cell maturation antigen; CD269
T1 sequence: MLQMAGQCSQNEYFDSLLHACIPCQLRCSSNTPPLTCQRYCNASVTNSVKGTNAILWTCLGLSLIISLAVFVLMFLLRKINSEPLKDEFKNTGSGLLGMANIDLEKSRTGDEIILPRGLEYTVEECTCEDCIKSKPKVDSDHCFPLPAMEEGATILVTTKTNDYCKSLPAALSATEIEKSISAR
Protocol: 1. A human NCI-H929 (ATCC, CRL-9068) cell suspension was taken, adjusted to a cell density of 2×10⁶ cells/mL, and added to a 96-well microplate at 100 μL/well. The cell suspension was centrifuged at 400 G for 5 min and the supernatant was removed. […] 2. […] 3. […] The plate was incubated at 4° C. for 30 min (in the dark). […] 4. Then the resulting solution was centrifuged at 400 G for 5min, and washed twice with PBS, and the cells were resuspended with 100 μL of PBS per well. Flow cytometry was performed on an Accuri C6 system (BD Bioscience) to detect PE positive signals, and MFI was calculated based on C6 software. The EC50 values were calculated using GraphPad software.

[2] = molecular target: T2, human BCMA-His (human, UniProt Q02223 1-54); assay: BLI (ForteBio Octet Red96), scFv-hFc on AHC sensors, human BCMA-His in solution
T2 construct: Bought antigen (ACRO BIOSYSTEMS, BCA-H522Y); probably only the extracellular domain stood in the assay; also called hBCMA-His; monovalent human BCMA; not shown: His tag
T2 sequence: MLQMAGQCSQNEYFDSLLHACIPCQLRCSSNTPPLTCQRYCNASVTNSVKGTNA
Protocol: The kinetic constants of the antibody molecules were determined based on the biofilm layer interferometry (BLI) of a fiber optic biosensor.
The Fortebio instrument model used in the experiment was Octet Red96, and a ForteBio affinity assay was performed according to the existing method (Estep, P et al., High throughput solution Based measurement of antibody-antigen affinity and epitope binning MAbs, 2013.5 (2): p. 270-8). The assay is specifically as follows: [0317] 1. Half an hour before the experiment, an appropriate number of AHC sensors were taken according to the number of samples and soaked in the SD buffer (50 mL PBS+0.1% BSA +0.05% Tween-20). [0318] 2. SD buffer, scFv-hFc antibodies and human BCMA-His antigens (ACRO BIOSYSTEMS, BCA-H522Y), each of 100 μL were added to a 96-well half-area black polystyrene microplate respectively. [0319] 3. The plates were arranged according to the positions of the samples, the positions of the sensors were selected, and the operation procedures were set as: Baseline, Loading ˜1 nm, Baseline, Association, and Dissociation, each running for a time depending on the binding and dissociation rates of the sample, at a rotation speed of 1,000 rpm and a temperature of 30° C. [0320] 4.

B1: ADI-34832 scFv-hFc (Fc fusion)
chain: DIQMTQSPSSVSASVGDRVTITCRASQGISSWLAWYQQKPGKAPKLLIYAASSLQSGVPSRFSGSGSGTDFTLTISSLQPEDFATYYCQQTLSLPITFGGGTKVEIKGSTSGSGKPGSGEGSTKGQITLKESGPTLVKPTQTLTLTCTFSGFSLSTSGVGVGWIRQPPGKALEWLALIYWNDEKRYSPSLKSRLTITKDTSKNQVVLTMTNMDPVDTAVYYCARDPGEQLQVFDYWGQGTLVTVSSTTTPAPRPPTPAPTIASQPLSLRPEACRPAAGGAVHTRGLDFACD[human IgG1 Fc not printed]
notes: also called ADI-34832 scFv-hc
Work on B1 yielded an EC50 [1] of 11.2 nM, a Kd [2] of 70.7 nM and a koff [2] of 0.0131 s⁻¹. The kon [2] was 186000 M⁻¹ s⁻¹.

B2: ADI-34846 scFv-hFc (Fc fusion)
chain: DIVLTQSPDSLAVSLGERATINCKSSQSVLYSSNNKNYLAWYQQKPGQPPKLLIYWASTRESGVPDRFSGSGSGTDFTLTISSLQAEDVAVYYCQQYSDLLTFGGGTKVEIKGSTSGSGKPGSGEGSTKGQVQLVQSGAEVKKPGSSVKVSCKASGGTFSNYAISWVRQAPGQGLEWMGGIIPIFGTANYAQKFQGRVTITADESTSTAYMELSSLKSEDTAVYYCARGSGYYSSWLFDIWGQGTMVTVSSTTTPAPRPPTPAPTIASQPLSLRPEACRPAAGGAVHTRGLDFACD[human IgG1 Fc not printed]
With B2 the EC50 [1] was 816 nM, the Kd [2] was 11.4 nM and the koff [2] was 0.00146 s⁻¹. It also gave a kon [2] of 128000 M⁻¹ s⁻¹.

B3: ADI-34850 scFv-hFc (Fc fusion)
chain: EIVMTQSPATLSVSPGERATLSCRASQSVGSNLAWYQQKPGQAPRLLIYGASTRATGIPARFSGSGSGTEFTLTISSLQSEDFAVYYCQQSVNLPITFGGGTKVEIKGSTSGSGKPGSGEGSTKGEVQLVESGGGLVQPGRSLRLSCAASGFTFDDYAMHWVRQAPGKGLEWVSGISWSSGSIGYADSVKGRFTISRDNAKNSLYLQMNSLRAEDTAVYYCAKDSPRRDSFGSIAFDIWGQGTMVTVSSTTTPAPRPPTPAPTIASQPLSLRPEACRPAAGGAVHTRGLDFACD[human IgG1 Fc not printed]
In the case of B3, the EC50 [1] is reported as 28.7 nM, the Kd [2] is reported as 33.1 nM and the koff [2] is reported as 0.00911 s⁻¹. It also gave a kon [2] of 275000 M⁻¹ s⁻¹.

B4: ADI-34857 scFv-hFc (Fc fusion)
chain: DIQMTQSPSSLSASVGDRVTITCQASQDITNYLNWYQQKPGKAPKLLIYDASNLETGVPSRFSGSGSGTDFTFTISSLQPEDIATYYCQQAFDLITFGGGTKVEIKGSTSGSGKPGSGEGSTKGQVQLVQSGAEVKKPGSSVKVSCKASGGTFSNYAISWVRQAPGQGLEWMGGIIPIFGTANYAQKFQGRVTITADESTSTAYMELSSLRSEDTAVYYCARGRGYYSSWLFDIWGQGTMVTVSSTTTPAPRPPTPAPTIASQPLSLRPEACRPAAGGAVHTRGLDFACD[human IgG1 Fc not printed]
In the case of B4, the EC50 [1] is reported as 17.7 nM, the Kd [2] is reported as 6.44 nM and the koff [2] is reported as 0.00469 s⁻¹. It also gave a kon [2] of 729000 M⁻¹ s⁻¹.

B5: ADI-34859 scFv-hFc (Fc fusion)
chain: DIQMTQSPSSLSASVGDRVTITCRASQSINSYLNWYQQKPGKAPKLLIYAASSLQSGVPSRFSGSGSGTDFTLTISSLQPEDFATYYCQQKASAPITFGGGTKVEIKGSTSGSGKPGSGEGSTKGQLQLQESGPGLVKPSETLSLTCTVSGGSISSSSYYWGWIRQPPGKGLEWIGSISYSGSTYYNPSLKSRVTISVDTSKNQFSLKLSSVTAADTAVYYCARDRGDTILDVWGQGTMVTVSSTTTPAPRPPTPAPTIASQPLSLRPEACRPAAGGAVHTRGLDFACD[human IgG1 Fc not printed]
B5 gave an EC50 [1] of 34.6 nM, a Kd [2] of 39.5 nM and a koff [2] of 0.00788 s⁻¹. It also gave a kon [2] of 200000 M⁻¹ s⁻¹.

B6: ADI-34860 scFv-hFc (Fc fusion)
chain: DIQMTQSPSSLSASVGDRVTITCRASQSISSYLNWYQQKPGKAPKLLIYAASSLQSGVPSRFSGSGSGTDFTLTISSLQPEDFATYYCQQKYDLLTFGGGTKVEIKGSTSGSGKPGSGEGSTKGQLQLQESGPGLVKPSETLSLTCTVSGGSISSSSYYWGWIRQPPGKGLEWIGSISYSGSTYYNPSLKSRVTISVDTSKNQFSLKLSSVTAADTAVYYCARDRGDTILDVWGQGTMVTVSSTTTPAPRPPTPAPTIASQPLSLRPEACRPAAGGAVHTRGLDFACD[human IgG1 Fc not printed]
B6 showed an EC50 [1] of 37.3 nM, a Kd [2] of 8.68 nM and a koff [2] of 0.00147 s⁻¹. It also gave a kon [2] of 169000 M⁻¹ s⁻¹.

B7: ADI-34861 scFv-hFc (Fc fusion)
chain: DIQMTQSPSSLSASVGDRVTITCRASQSISRYLNWYQQKPGKAPKLLIYAASSLQSGVPSRFSGSGSGTDFTLTISSLQPEDFATYYCQQKYFDITFGGGTKVEIKGSTSGSGKPGSGEGSTKGQLQLQESGPGLVKPSETLSLTCTVSGGSISSSSYYWGWIRQPPGKGLEWIGSISYSGSTYYNPSLKSRVTISVDTSKNQFSLKLSSVTAADTAVYYCARDRGDTILDVWGQGTMVTVSSTTTPAPRPPTPAPTIASQPLSLRPEACRPAAGGAVHTRGLDFACD[human IgG1 Fc not printed]
B7 gave an EC50 [1] of 27.4 nM, a Kd [2] of 22.7 nM and a koff [2] of 0.00331 s⁻¹. For the same binder, the kon [2] was 146000 M⁻¹ s⁻¹.
